Measured values published in the CheMixHub viscosity set.

| Structure (SMILES) | viscosity (298.15 K, 101.33 kPa) | viscosity (303.15 K, 101 kPa) | viscosity (303.15 K, 101.33 kPa) | viscosity (308.15 K, 101.33 kPa) | viscosity (313.15 K, 101.33 kPa) | viscosity (293.15 K, 101 kPa) | viscosity (298.15 K, 101 kPa) | viscosity (313.15 K, 101 kPa) |
| --- | --- | --- | --- | --- | --- | --- | --- | --- |
| CCOCCO | 1.78 ± 0.07 mPa·s [study A] and 1.175 ± 0.012 mPa·s [study B] and 1.838 ± 0.013 mPa·s [study C] and 1.784 ± 0.042 mPa·s [study D] and 1.784 ± 0.021 mPa·s [study E] and 2.054 ± 0.013 mPa·s [study F] | 1.572 ± 0.064 mPa·s [study A] and 1.845 ± 0.034 mPa·s [study B] and 1.572 ± 0.16 mPa·s [study C] and 1.845 ± 0.47 mPa·s [study D] | 1.64 ± 0.07 mPa·s [study A] and 1.629 ± 0.026 mPa·s [study B] and 1.644 ± 0.012 mPa·s [study C] and 1.587 ± 0.037 mPa·s [study D] and 1.643 ± 0.042 mPa·s [study E] | 1.46 ± 0.06 mPa·s [study A] and 1.37 ± 0.066 mPa·s [study B] and 1.471 ± 0.011 mPa·s [study C] and 1.427 ± 0.034 mPa·s [study D] | 1.34 ± 0.05 mPa·s [study A] and 1.333 ± 0.01 mPa·s [study B] and 1.281 ± 0.031 mPa·s [study C] and 1.293 ± 0.034 mPa·s [study D] | – | – | – |
| CC(C)CCO | – | 3.25 ± 0.07 mPa·s [study A] and 3.267 ± 0.056 mPa·s [study B] and 3.296 ± 0.038 mPa·s [study C] and 3.227 ± 0.051 mPa·s [study D] | 3.399 ± 0.034 mPa·s [study A] and 3.033 ± 0.037 mPa·s [study B] and 2.96 ± 0.019 mPa·s [study C] and 3.191 ± 0.038 mPa·s [study D] | – | – | 4.26 ± 0.09 mPa·s [study A] and 4.376 ± 0.12 mPa·s [study B] and 4.366 ± 0.043 mPa·s [study C] and 4.385 ± 0.05 mPa·s [study D] | 3.756 ± 0.066 mPa·s [study A] and 3.74 ± 0.08 mPa·s [study B] and 3.748 ± 0.034 mPa·s [study C] and 3.48 ± 0.04 mPa·s [study D] and 3.79 ± 0.044 mPa·s [study E] and 3.724 ± 0.058 mPa·s [study F] | 2.35 ± 0.05 mPa·s [study A] and 2.376 ± 0.063 mPa·s [study B] and 2.429 ± 0.044 mPa·s [study C] and 2.392 ± 0.026 mPa·s [study D] and 2.529 ± 0.029 mPa·s [study E] |

± gives the uncertainty stated by the source. Some entries of the source have several records that differ or are many. This list holds those alone. An entry can have further records. Results that share an entry are repeats across runs, samples, wells, individuals or studies. Records carry a tag for their origin. Letters hold for one entry only.
